Source: the supplement of paper PMC10369915
The other results are listed elsewhere or left out. No stated cut-off is given here; in the data, active = 3.2 or more and inactive = the rest. The signal is at background level for most entries.

B1: INSR_HUMAN_1355_YA (peptide)
chain: SLGFKRSYEEHIPAT
B2: ITSN2_HUMAN_553_YA (peptide)
chain: EAQNKLIYLVPEKQL
B3: ITGB7_HUMAN_753_YA (peptide)
chain: ARLSVEIYDRREASR
B4: INSR_HUMAN_401_YA (peptide)
chain: ALKIRRSYALVSLSF
B5: ITK_HUMAN_180_YA (peptide)
chain: ETVVIALYDAQTNDP
B6: ITB1_HUMAN_783 (peptide)
chain: DTGENPIYKSAVTTV
B7: IRS1_HUMAN_612 (peptide)
chain: TLHTDDGYMPMSPGV
B8: INAR1_HUMAN_466 (peptide)
chain: VFLRCINYVFFPSLK
B9: JAK2_HUMAN_373 (peptide)
chain: VSLIDGYYRLTADAH
B10: INSRR_HUMAN_1141_YA (peptide)
chain: FGMTRDVYETDAARK
B11: JAK1_HUMAN_1035_YA (peptide)
chain: IETDKEAYTVKDDRD
B12: JAK2_HUMAN_119_YA (peptide)
chain: VLARIRFYFPRWACS
B13: ITPR2_HUMAN_2607_YA (peptide)
chain: KVKDPTEYTGPESAV
B14: IL3RB_HUMAN_766 (peptide)
chain: VKSGFEGYVELPPIE
B15: JAK2_HUMAN_1007 (peptide)
chain: VLPQDKEYYKVKEPG
B16: JAK3_HUMAN_785 (peptide)
chain: NSLISSDYELLSDPT
B17: INSR_HUMAN_999 (peptide)
chain: YASSNPEYLSASDVF
B18: IRS2_HUMAN_1253 (peptide)
chain: GFQNGLNYIAIDVRE

What follows are binders tested against SHP2 C-SH2 domain E139D (assay: enrichment score (SH2-bound / input frequency) (ratio); bacterial display of known human phosphotyrosine sites (pTyr-Var adds point mutants) read by sequencing; higher = stronger binding; tyrosines were phosphorylated by kinases first). Conditions: peptide library: Human pTyr.
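Further: displayed peptides selected on beads carrying the immobilized SH2 domain, with library peptides lacking any tyrosine serving as negative controls.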

Enrichment score, inactive:
B1 0.826
B2 0.866
B3 1.68
B4 1.52
B5 0.915
B6 0.6
B7 0.628
B8 2.74
B10 0.836
B11 1.21
B12 1
B13 0.963
B14 0.703
B15 1.61
B16 0.666
B17 0.484
B18 0.791

Enrichment score, active:
B9 7.95

What follows are binders tested against SHP2 C-SH2 domain wild-type in the same assay as above. Conditions: peptide library: Human pTyr.

Enrichment score, active:
B9 15.9

Enrichment score, inactive:
B1 0.747
B2 0.827
B3 1.36
B4 1.37
B5 0.821
B6 0.581
B7 0.453
B8 2.6
B10 0.799
B11 1.04
B12 0.917
B13 1.04
B14 0.946
B15 1.26
B16 0.49
B17 0.443
B18 0.839

Each binder was assayed against SHP2 N-SH2 domain L43F in the same assay as above. Conditions: peptide library: Human pTyr.

Enrichment score, inactive:
B1 0.822
B3 1.26
B4 1.25
B5 0.795
B6 0.532
B7 0.483
B8 2.23
B9 0.68
B10 0.912
B11 1.1
B12 1.08
B13 0.888
B14 0.817
B15 1.28
B16 0.73
B17 0.536

Enrichment score, active:
B2 13.4
B18 3.54

The binders below were run against SHP2 N-SH2 domain T42A in the same assay as above. Conditions: peptide library: Human pTyr.

Enrichment score, active:
B2 4.45

Enrichment score, inactive:
B1 0.663
B3 1.46
B4 1.27
B5 0.831
B6 0.577
B7 0.445
B8 2.97
B9 0.858
B10 0.714
B11 1.15
B12 0.909
B13 0.861
B14 0.738
B15 1.4
B16 0.486
B17 0.446
B18 1.76

These binders were tested against SHP2 N-SH2 domain T52S in the same assay as above. Conditions: peptide library: Human pTyr.

Enrichment score, active:
B2 8.14

Enrichment score, inactive:
B1 0.89
B3 1.64
B4 1.58
B5 0.908
B6 0.612
B7 0.763
B8 2.91
B9 0.759
B10 0.828
B11 1.09
B12 0.908
B13 1.12
B14 0.89
B15 1.46
B16 0.436
B17 0.5
B18 2.23

Each binder was assayed against SHP2 N-SH2 domain wild-type in the same assay as above. Conditions: peptide library: Human pTyr.

Enrichment score, inactive:
B1 0.862
B2 1.64
B3 1.41
B4 1.45
B5 0.8
B6 0.676
B7 0.515
B8 3.1
B9 0.744
B10 0.702
B11 1.22
B12 1.23
B13 1.07
B14 0.835
B15 1.45
B16 0.598
B17 0.661
B18 0.981
